Laboratory results as given in PubChem BioAssay AID2101 (National Center for Advancing Translational Sciences (NCATS), 2009).
Hit rate of the full screen: of about 330,000 compounds, about 300 (0.091%) were called active. Another 4% or so got no clear call; they are omitted. The call rests on the fitted dose curve; in most records, active means well fitted inhibition curve with a large enough effect; inconclusive means small, poorly fitted or top-dose-only effect, or effect the other way, or another doubt; inactive means no such curve, though single readings can be large or run the other way. This is a selection; strong and weak results do not stand in their true shares.

The compounds below were run against Lysosomal acid glucosylceramidase (Homo sapiens) (UniProt P04062) (assay: qHTS Assay for Inhibitors and Activators of N370S glucocerebrosidase as a Potential Chaperone Treatment of Gaucher Disease). Conditions: N370S GC spleen homogenate, 4MU-glucoside fluorescence; series mostly up to 59.4 µM; activity change, negative = inhibition: at the top concentration.
Potency means the concentration at half of the fitted maximal effect.
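Wherever activity change, negative = inhibition is given: 0% = full enzyme activity and -100% = no enzyme basal.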

Potency, active:
CCc1cc(C(c2ccccn2)N2CCN(C)CC2)c(NC(=O)c2ccccc2)s1 (centres undefined) 14.1 µM
C#CCOCCOCCOCCNc1nc(N2CCN(C(=O)CCCCCCCCCCNC(=O)[C@H](CCCCN)n3cc(CCO)nn3)CC2)nc(N2CCN(C(=O)CCCCCCCCCCNC(=O)[C@H](CCCCN)n3cc(C[C@@H](C)CC)nn3)CC2)n1 14.1 µM
COc1cccc(Nc2nc(-c3cccs3)nc3ccccc23)c1 12.6 µM
OC(COC(c1ccc(Cl)cc1)c1ccc(Cl)cc1)CN1CCc2ccccc2C1 (centres undefined) 7.94 µM

Potency, inactive:
Nc1nc2ncc(CNc3ccc(C(=O)N[C@@H](CCC(=O)O)C(=O)O)cc3)nc2c(=O)[nH]1
Ic1ccc(N2CCN(Cc3c[nH]c4ncccc34)CC2)cc1
COC(=O)C1C(O)CC[C@@H]2CN3CCc4c([nH]c5ccccc45)C3C[C@@H]12 (some centres undefined)
NS(=O)(=O)c1cc2c(cc1Cl)NC(C1CC3C=CC1C3)NS2(=O)=O (centres undefined)
CCCCCCCCCC(=O)N[C@H](CN1CCOCC1)[C@H](O)c1ccccc1
Oc1ccc(-c2nc(-c3ccc(F)cc3)c(-c3ccncc3)[nH]2)cc1
CN1CCN(CCC=C2c3ccccc3Sc3ccc(S(=O)(=O)N(C)C)cc32)CC1
COc1cc2ncnc(Nc3cccc(Cl)c3)c2cc1OC
CCCCC[C@H](O)/C=C/[C@@H]1[C@H]2C/C(=C/CCCC(=O)O)C[C@H]2C[C@H]1O
O=c1cc(-c2ccccc2)oc2cc(O)c(O)c(O)c12
O=c1[nH]c2cc(C(F)(F)F)ccc2n1-c1cc(C(F)(F)F)ccc1O
C/C=C/CC(C)C(O)C1C(=O)NC(CC)C(=O)N(C)CC(=O)N(C)C(CC(C)C)C(=O)NC(C(C)C)C(=O)N(C)C(CC(C)C)C(=O)NC(C)C(=O)NC(C)C(=O)N(C)C(CC(C)C)C(=O)N(C)C(CC(C)C)C(=O)N(C)C(C(C)C)C(=O)N1C (centres undefined)
COC(=O)[C@@H]1C[C@H]2CC[C@H](O)C[C@H]2N1Cc1ccc(Cl)cc1

Activity change, negative = inhibition, inactive:
N#C/C(=C\c1ccc(N2CCOCC2)o1)C(=O)N1CCOCC1 -15.5%
CC(C)(C)[C@@H]1C=C(C(=O)N2CCN(Cc3ccc4c(c3)OCO4)CC2)O[C@H](OCc2ccc(CO)cc2)C1 -8.05%
CCCC[C@H](CC)CN=C(N)NC(N)=NCCCCCCN=C(N)NC(N)=NC[C@@H](CC)CCCC -11.1% [at 21.6 µM]
COc1cc([C@@H]2Oc3cc(C4Oc5cc(O)cc(O)c5C(=O)[C@H]4O)ccc3O[C@H]2CO)ccc1O (some centres undefined) -17.3%
O=C(NCc1ccccc1)C1=C[C@@H](c2ccc(Br)cc2)C[C@@H](OCc2ccc(CO)cc2)O1 26.5%
C[C@H](CO)NC(=O)[C@H](C)[C@H]1C[C@]1(C)[C@H](NC(=O)OCc1ccccc1)c1ccccc1 -5.75%
NC1=NC[C@@H](Cc2ccc(O)cc2)N1CCCCC1CCCCC1 -28.7%
CCOC(=O)[C@@H]1[C@H]2COc3ccccc3[C@@H]2N2C(=O)N(c3cccc(Cl)c3)C(=O)[C@]12C -2.47%
C[C@@H](C(=O)Nc1ccc2ccccc2c1)[C@H]1C[C@]1(C)[C@H](NC(=O)Oc1ccc(F)cc1)c1ccccc1 -2.37%
CCC(C)[C@H](NC(=O)N1CC(=O)Nc2ccccc21)C(=O)N1CCC[C@H]1C(=O)O (some centres undefined) 1.22%
Cc1ccccc1OCC(O)Cn1c(=N)n(CCN2CCOCC2)c2ccccc21 (centres undefined) 2.78%
NC(Cc1cc(I)c(Oc2ccc(O)c(I)c2)c(I)c1)C(=O)O (centres undefined) 3.66%
O=C(O)c1ccc2c(c1)C(=O)N([C@H](Cc1ccc(O)cc1)C(=O)O)C2=O -2.13%
COC(=O)[C@@]1(Cc2ccc(F)cc2)[C@H]2c3cc(C(=O)N(C)C)n(CCc4ccc(OC)c(Br)c4)c3C[C@H]2CN1C(=O)c1ccccc1 -16.4%
O=C(C1=C[C@H](c2csc3ccccc23)C[C@H](OCc2ccc(CO)cc2)O1)N1CCN(Cc2ccccc2)CC1 23.2%
CCCN1CCC(=O)N(C(CSc2ccc(C)cc2)Cc2ccccc2)CC1 (centres undefined) -17.3%
COc1c(O)cc2oc(-c3ccc(O)c(O)c3)cc(=O)c2c1O -12.6%
CO[C@@H]1C=CO[C@]2(C)Oc3c(C)c(O)c4c(O)c(c(C=NN5CCN(C)CC5)c(O)c4c3C2=O)NC(=O)C(C)=CC=C[C@H](C)[C@H](O)[C@H](C)[C@H](O)[C@H](C)[C@H](OC(C)=O)[C@H]1C 6.99% [at 21.6 µM]
CC[C@H](C)[C@@H]1O[C@]2(CC[C@@H]1C)C[C@H]1C[C@H](CC=C(C)[C@@H](O[C@@H]3C[C@H](OC)[C@H](O[C@@H]4C[C@H](OC)[C@H](O)[C@H](C)O4)[C@H](C)O3)[C@@H](C)C=CC=C3CO[C@@H]4[C@@H](O)C(C)=C[C@@H](C(=O)O1)[C@]34O)O2 -8.47% [at 21.6 µM]
COc1ccc(O[C@H]2C=C[C@@H](c3ccccc3)O[C@H]2COC(=O)CC/C(C)=N\O[C@@H](C)CN2CCCCc3nc(C)c(C)cc32)cc1 -18.2% [at 12.8 µM]
C#Cc1ccc([C@H]2C=C(C(=O)N3CCN(Cc4ccc5c(c4)OCO5)CC3)O[C@@H](OCC)[C@@H]2CCCO)cc1 3.13%
COC(=O)C1=C(C)NC(C)=C(C(=O)OCCCN2CCC(c3ccccc3)(c3ccccc3)CC2)C1c1cccc([N+](=O)[O-])c1 (centres undefined) -28.3%
COc1cc2nc(N3CCN(C(=O)[C@@H]4CCCO4)CC3)nc(N)c2cc1OC 23.9% [at 21.6 µM]
C/C=C\C[C@H](C)[C@H](O)[C@H]1C(=O)N[C@@H](CC)C(=O)N(C)CC(=O)N(C)[C@@H](CC(C)C)C(=O)N[C@@H](C(C)C)C(=O)N(C)[C@@H](CC(C)C)C(=O)N[C@@H](C)C(=O)N[C@@H](C)C(=O)N(C)[C@@H](CC(C)C)C(=O)N(C)[C@@H](CC(C)C)C(=O)N(C)[C@@H](C(C)C)C(=O)N1C 1.02% [at 21.6 µM]
O=c1c(O[C@@H]2O[C@H](CO)[C@@H](O)[C@H](O)[C@H]2O)c(-c2ccc(O)c(O)c2)oc2cc(O)cc(O)c12 -15%
O=C(c1ccc(Br)o1)N(Cc1ccccc1)Cc1ccccc1 1.79% [at 89.1 µM]
CCC[C@@H]1O[C@@H]2C[C@@H]3[C@H]4CCC5=CC(=O)C=C[C@@]5(C)[C@H]4[C@H](O)C[C@@]3(C)[C@@]2(C(=O)CO)O1 -2.44% [at 21.6 µM]
